The values that follow come from the supplement of paper PMC4604168 (melanoma cell lines).

This is one part of the list. Most values come without repeats; read them as rough.
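Also: cell number obtained by counting DAPI-stained nuclei in high-throughput microscope images with image analysis software, screen run in 1,536-well plates.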

In the experiment the test system is SkMel2. Nature of the experiment: cell count relative to DMSO control; melanoma cells; higher = more viable cells. The note with it: library dose: low library concentration; 72 h.
The compound `Nc1nc(F)nc2c1ncn2[C@@H]1O[C@H](CO)[C@@H](O)[C@@H]1O` [fludarabine] + CO[C@@H]1[C@H](N(C)C(=O)c2ccccc2)C[C@H]2O[C@]1(C)n1c3ccccc3c3c4c(c5c6ccccc6n2c5c31)C(=O)NC4 [Midostaurin] (first compound 0.2 µM, partner dose 0.08 µM) gave a cell count of 4.11%.

`Nc1ncn([C@H]2C[C@H](O)[C@@H](CO)O2)c(=O)n1` [decitabine] + O=C1NC(=O)/C(=C/c2ccc(-c3ccc(F)cc3O)o2)S1 [AS252424] (first compound 0.1 µM, partner dose 1 µM) returned a cell count of 91.7%.

In turn, `Nc1ncn([C@H]2C[C@H](O)[C@@H](CO)O2)c(=O)n1` [decitabine] + CC(C)(C)c1cnc(CSc2cnc(NC(=O)C3CCNCC3)s2)o1 [SNS-032] (first compound 0.1 µM, partner dose 0.01 µM) displayed a cell count of 95.9%.

Take `Nc1ccn([C@@H]2O[C@H](CO)[C@@H](O)C2(F)F)c(=O)n1` [gemcitabine] + COc1ccc2c(c1)CCC1C2CCC2(C)C(NCCCCCCN3C(=O)C=CC3=O)CCC12 [U73122] (first compound 0.0004 µM, partner dose 0.4 µM): the cell count came to 97.4%.

With `Nc1ncn([C@H]2C[C@H](O)[C@@H](CO)O2)c(=O)n1` [decitabine] + COc1cc2c(Oc3ccc4[nH]c(C)cc4c3F)ncnc2cc1OCCCN1CCCC1 [cediranib] (first compound 0.1 µM, partner dose 0.4 µM), the cell count was 105%.
